# From PubChem BioAssay (NCATS)
# Records with an inconclusive call do not appear. Calls follow the shape of the dose curve; as a rule, active = well fitted inhibition curve with a large enough effect in the signal ratio, with a control signal flat (not every such curve was filed as active); inconclusive = small, poorly fitted or top-dose-only effect, or effect the other way, or a change in a side signal; inactive = no such curve, though single readings can be large or run the other way; the % refers to the signal ratio. Some entries of the source have several records that differ or are many. The other results are left out here. There may be further records. The values listed for one entry are repeated measurements across runs, samples, wells, individuals or studies.
# Target: Retinoic acid receptor RXR-alpha (Homo sapiens) (UniProt P19793)
# Test: qHTS assay for small molecule antagonists of retinoid X receptor alpha signaling (AID 588546)
# Conditions: HEK293T RXRa-UAS-bla, beta-lactamase ratio, antagonist mode
# How it was run: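 Beta-lactamase reporter inhibition, read as CCF4 fluorescence ratio (ex 405, em 460/530 nm) after 2 h at RT. HEK293T UAS-bla cells, 2500/well, were stimulated with 9-cis-RA at 500 or 100 nM final alongside test compound for 18 h at 37 C.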
# % is scaled to controls: 0 for no effect and ±100 for the full control effect.
# Chain of UniProt P19793 (P19793 whole entry, looked up): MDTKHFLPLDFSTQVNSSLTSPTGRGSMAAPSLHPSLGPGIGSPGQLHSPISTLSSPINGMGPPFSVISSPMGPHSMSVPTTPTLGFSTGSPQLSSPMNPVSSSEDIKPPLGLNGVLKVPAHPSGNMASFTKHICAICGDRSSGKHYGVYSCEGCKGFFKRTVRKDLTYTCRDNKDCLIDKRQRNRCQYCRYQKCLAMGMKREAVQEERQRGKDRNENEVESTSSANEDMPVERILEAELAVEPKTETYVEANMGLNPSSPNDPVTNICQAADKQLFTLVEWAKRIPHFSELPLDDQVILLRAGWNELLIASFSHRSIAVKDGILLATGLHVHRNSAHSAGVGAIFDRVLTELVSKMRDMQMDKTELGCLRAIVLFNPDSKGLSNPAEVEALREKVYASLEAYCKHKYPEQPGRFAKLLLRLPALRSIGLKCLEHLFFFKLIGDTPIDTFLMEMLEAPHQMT
smiles,measurement,value
CCOP(=S)(OCC)Oc1nc(Cl)c(Cl)cc1Cl,max response,"inactive: -7.75, 1.08, -36.1, -4.87% [separate samples]"
